From publication PMC6212790
This is one part of the list. At the low end of the ranking, values are background and their order means little.

These sequences were tested against T1, GST-Rok (full length) (UniProt O34857) (assay: protein binding microarray). Settings: Rok is a gene silencer of Bacillus subtilis; high values mean tight binding; most listed sequences are background and not binding sites; double strand, one strand shown.
T1 sequence: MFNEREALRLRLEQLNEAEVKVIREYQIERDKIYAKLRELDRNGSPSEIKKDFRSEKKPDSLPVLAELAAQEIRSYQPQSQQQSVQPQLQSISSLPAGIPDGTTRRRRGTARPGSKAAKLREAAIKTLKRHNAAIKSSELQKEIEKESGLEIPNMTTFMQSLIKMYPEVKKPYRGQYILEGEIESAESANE
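Also: rank score from −0.5 (least bound) to 0.5 (best bound).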

Sequence	binding signal [E-score]
CCAGGGCC	-0.324
TTTGAAAA	-0.0372
ATCGCCCG	-0.204
CCGCCCGC	-0.265
ACCTCAGA	-0.201
CCAAAAAG	-0.177
ACATGGCG	0.0887
ACGTTGTG	0.0505
GTGACACA	-0.0597
ACATGCTG	0.026
ACTGACGC	-0.141
CTGACAAA	-0.0817
CGCATGCG	-0.208
AGGCGTGA	-0.0745
AGTTCTAT	0.213
CACTTCGC	-0.0466
CGTTCTGA	-0.0208
AGGGTCTG	-0.253
CGCGGAAA	0.0815
AGTTGCTA	0.244
GCCTTGAA	-0.261
ACCTATGC	-0.000435
GTACTGAA	0.158
ATTCAGAG	-0.175
GTACCTAC	0.353

Sequence	binding signal [E-score]
CAAATTAG	0.21
CGATTACA	-0.181
CCCCCAGG	-0.424
CCCTTAGA	-0.105
AAGTTGAT	0.0883
CTCAAACA	-0.035
AGGTGCCA	-0.0282
GTACAGAA	0.159
AATTCAGT	0.0755
CTAGGCTC	-0.143
CGGCGAGC	-0.228
CTAACGAA	0.136
ACAGTCTA	0.147
CAAAATCG	0.124
GGAGCACA	-0.305
ACGCTACC	0.282
AAAGTTTC	0.104
TCGACCCA	-0.108
CCAATTTA	0.108
GCAGCCCA	-0.328
CGCCGTAC	-0.124
ATTAGCAC	0.0616
CCCGAGAC	-0.319
GCTTTCCC	-0.318
CCAAATGG	-0.148

Sequence	binding signal [E-score]
AGCTATTC	-0.0609
CGCCCGAC	-0.318
CCACCCGA	-0.386
GGCTATTA	0.159
AGCAGGCC	-0.348
TAGTTAGA	0.325
CGGAACCA	-0.174
GTTAGGTA	0.191
GCGGGAAC	-0.293
AAGATCTC	0.00399
CTATAATA	0.355
GGAAGCCC	-0.33
GGCCGGGA	-0.27
AACTTCCG	0.0518
CCTCATCC	-0.202
ACGCCTCC	-0.116
CTGGCGTA	-0.0163
CTCCCTCC	-0.122
ATGTTAGA	0.15
CAAAAAAC	0.0394
GCCGGAAA	-0.147
ACGTAACG	0.0704
GACAACGA	-0.0292
TCAATAAA	0.219
ATACCAGG	0.029

Sequence	binding signal [E-score]
ATCCTCAG	0.00471
GCTGATAA	0.0653
AGCGCGAG	-0.00189
CAAGAAGA	-0.162
CGATTTCA	-0.198
AGCTTGGG	-0.125
AACCTAAT	0.0985
GAAAGTCC	-0.202
GATCCGGC	-0.259
CGTGGCCA	-0.422
CTCCCATC	-0.168
CGCTTAAA	-0.167
AGTCGACA	-0.00632
CACTTGCG	-0.122
ACAGGAAT	-0.0795
CCTGCTTC	-0.292
CGGAAACC	-0.182
ATCGTCGA	0.0478
AGCCCGTA	-0.204
AAGAACAT	0.0933
GTATCCAA	0.0504
GCTGTCCA	-0.245
CCATGATC	-0.0637
CATGGCAG	-0.369
AATTAGCG	0.221

Sequence	binding signal [E-score]
CCTCCATA	0.0365
CGGGTCTC	-0.0801
GGGATCCA	-0.281
AGTAAAGG	-0.0609
AATCACGA	0.123
AGGCTGTG	-0.235
ACAAACCC	-0.097
GTCGTATA	0.119
AACATTAA	0.133
CCTACTCG	0.00815
CAACCCGG	-0.234
CATGGAGG	-0.183
GTACGTCA	-0.0304
ATGTGACG	-0.0759
AGGATAGG	0.102
CGGATGAA	0.00168
ACTTATCA	0.19
CCGCGCCC	-0.249
GTGACCAC	-0.142
AGGCACGG	-0.21
ACGAAGTA	0.0217
AGTCAGTG	-0.0338
CACTTTTA	0.152
GCGCTGAA	-0.0849
AAGTGGTG	0.111

Sequence	binding signal [E-score]
AAGACGCA	-0.00401
GTCTGCCA	-0.128
AGAGTATA	0.247
GTAGATAC	0.359
ATGAGTAC	0.222
CCCCTCCG	-0.331
GGCACTAC	-0.0484
GACCATGA	-0.103
ATTTGACA	0.191
AGCAGGAC	-0.185
AGGTCGAT	-0.00634
AATTAACC	0.205
CTCCCCTC	-0.356
AGATCAAT	0.0403
GACTTGTA	0.0616
AATGACGG	0.0382
GACAGAGA	-0.0968
CAAGTATG	0.15
CCTCGGAA	0.0565
ATTTCACA	0.0791
GCGTCGAC	-0.172
ATATTACA	0.317
AACCGGTC	-0.173
CGCAAACC	-0.0383
TAGGAAAA	-0.0265

Sequence	binding signal [E-score]
CAGATACG	-0.0438
AACTACTT	0.418
CGATCGGC	-0.277
AGATCAAC	-0.0203
CCTTGCTA	0.046
ATGCAGCG	0.00672
GTTCTCGA	0.159
CATCAACA	0.0458
GAGAGCAC	-0.18
GTATGGTA	0.282
CCGCGACG	-0.343
AAGGCGGA	-0.256
CAAAATGG	-0.106
GTACACGA	0.122
CGCCCTTC	-0.426
GCGCTTCA	-0.0884
ATCTGTCC	0.14
CCGCCGCG	-0.309
TGACCTAA	0.139
AGTCGGAG	-0.0981
ACAACTGT	0.0667
ACCTCCCC	-0.357
